± gives the standard error. Variants at the background level are over-represented here.
B1: glmS ribozyme (parent)
chain: AUAAAAGCGCCAGAACUACAGAAAUGUAGUUGACGAGGAGGAGGUUUAUCGAAUUUUCGGCGGAUGCCUCCAAA

Experiments:
Conditions in all cases: with glucosamine-6-phosphate
glucosamine-6-phosphate [1] = variants of: B1; test: self-cleavage kobs at 40 uM GlcN6P; higher = faster cleavage; RNA array
In short: (§1)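 E. coli RNA polymerase transcribed barcoded ribozyme variants in situ on sequenced MiSeq chips, which were tracked via a hybridised Cy3 probe at 37 °C. Tiles were imaged over ~14 h after glucosamine-6-phosphate (40 μM to 10 mM) in HEPES/KCl/Mg(OAc)2 buffer was flowed in. Normalised per-tile medians were fit to one- or two-exponential decays for kobs, and kcat and KM came from weighted Michaelis–Menten fits.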

glucosamine-6-phosphate [2] = variants of: B1; test: self-cleavage kobs at 640 uM GlcN6P; higher = faster cleavage; RNA array
In short: as §1

glucosamine-6-phosphate [3] = variants of: B1; test: self-cleavage kobs at 160 uM GlcN6P; higher = faster cleavage; RNA array
In short: as §1

glucosamine-6-phosphate [4] = variants of: B1; test: self-cleavage kobs at 10000 uM GlcN6P; higher = faster cleavage; RNA array
In short: as §1

glucosamine-6-phosphate [5] = variants of: B1; test: self-cleavage kobs at 2500 uM GlcN6P; higher = faster cleavage; RNA array
In short: as §1

Row | Variant | self-cleavage kobs at 40 uM GlcN6P (glucosamine-6-phosphate [1]) [s⁻¹] | self-cleavage kobs at 640 uM GlcN6P (glucosamine-6-phosphate [2]) [s⁻¹] | self-cleavage kobs at 160 uM GlcN6P (glucosamine-6-phosphate [3]) [s⁻¹] | self-cleavage kobs at 10000 uM GlcN6P (glucosamine-6-phosphate [4]) [s⁻¹] | self-cleavage kobs at 2500 uM GlcN6P (glucosamine-6-phosphate [5]) [s⁻¹]
1 | AUAAAAGCGACAGAACUACAGAAAUGUAGUUGACGAGGAGGAGGUCUAUCGAAUUUUCGGCGGAUGCCUCCAAA [C10A U46C] | < 1e-05 | < 1e-05 | < 1e-05 | < 1e-05 | –
2 | AUAAAAGCGGCAGAACUACAGAAAUGUAGUUGACGAGGAGGAGGUUUAUCGCAUUUUCGGCGGAUGCCUCCAAA [C10G A52C] | < 1e-05 | < 1e-05 | < 1e-05 | < 1e-05 | < 1e-05
3 | AUAAAAGCUCCAGAACUACAGAAAUGUAGUUGGCGAGGAGGAGGUUUAUCGAACUUUCGUCGGAUGCCUCCAAA [G9U A33G U54C G60U] | < 1e-05 | < 1e-05 | < 1e-05 | – | < 1e-05
4 | AUAAAAGCGACAGAACUACAGAAAUGUAGUUGACGAGGAGGAGGUUUAUCGAAUUUUCGGCGGAGGCCUCCAAA [C10A U65G] | < 1e-05 | < 1e-05 | – | < 1e-05 | < 1e-05
5 | AUAAAAGCGACAGAACUACAGAAAUGUAGUUGACGAGGAGGAGGUUUAUCGAAUUUUCGGCGGAAGCCUCCAAA [C10A U65A] | < 1e-05 | < 1e-05 | < 1e-05 | < 1e-05 | –
6 | AUAAAAGCGGCAGAACUACAGAAAUGUAGUUGACGAGGAGGAGGUCUAUCGAAUUUUCGGCGGAUGCCUCCAAA [C10G U46C] | < 1e-05 | < 1e-05 | < 1e-05 | < 1e-05 | < 1e-05
7 | AUAAAAGCGGCAGAACUACAGAAAUGUAGCUGCCGAGGAGGAGGUUUAUCGAAUAUUCGGCGGAUGCCUCCAAA [C10G U30C A33C U55A] | < 1e-05 | – | – | < 1e-05 | –
8 | AUAAAAGCGACAGAACUACAGAAAUGUAGUUGACGAGAAGGAGGUUUAUCGAAUUUUCCGCGGAUGCCUCCAAA [C10A G38A G59C] | < 1e-05 | < 1e-05 | – | < 1e-05 | –
9 | AUAAAAGCGGCAGAACUACAGAAAUGUAAUUGACGAGGAGGAGGUUUAUCGAAGUUUCGGCGGAUGCCUCCAAA [C10G G29A U54G] | < 1e-05 | – | – | – | –
10 | AUAAAAGCGGCAGAACUACAGAAAUGUAGUUGACGAGGAGGCGGUUUAUCGAAUUUUCGGUGGAUGCCUCCAAA [C10G A42C C61U] | < 1e-05 | – | – | < 1e-05 | –
11 | AUAAAAGCGGCAGAAGUACAGAAAUGUAGUUGACGAGGAUGAGGUUUAUCGAAUUUUCGGCGGAUGCCUCCAAA [C10G C16G G40U] | < 1e-05 | – | – | – | < 1e-05
12 | AUAAAAGCGGCAGAACUACAGAAAUGUAGUUGACGAGGAUGAGGUUUAUCGAAUUUUCGGCGGAUGCCUCCAAA [C10G G40U] | < 1e-05 | < 1e-05 | < 1e-05 | < 1e-05 | < 1e-05
13 | AUAAAAGCGACAGAACUACAGAAAUGUAGUUGACGAGGAGGAGGUUUAUCGAAUUUUCGGCGCAUGCCUCCAAA [C10A G63C] | < 1e-05 | < 1e-05 | – | < 1e-05 | < 1e-05
14 | AUAAAAGCGGCAGAACUACAGAAAUGUAGCUUACGAGGAGGAGGUUUAUCGAAUUUUCGGCGGAUACCUCCAAA [C10G U30C G32U G66A] | < 1e-05 | < 1e-05 | < 1e-05 | – | –
15 | AUAAAAGCGACAGAACUACAGAAAUGUAGUUGACGAGGAGGAGGUUUAUCGACUUUUCGGCGGAUGCCUCCAAA [C10A A53C] | < 1e-05 | < 1e-05 | – | < 1e-05 | < 1e-05
16 | AUAAAAGCGACAGAAAUACAGAAAUGUAGUUGACGAGGAGGAGGUUUAUCGAAUUUUCGGCGGAUGCCUCCAAA [C10A C16A] | < 1e-05 | – | – | – | –
17 | AUAAAAGCGACAGAACUACAGAAAUGUAGUUGACGUGGCGGAGGUUUAUCGAAUUUGCGGCGGAUGCCUCCAAA [C10A A36U A39C U57G] | < 1e-05 | – | – | – | –
18 | AUAAAAGCGGCAGAACUACAGAAAUGUAGUUGACGAGCAGGAGGUUUAUCGAAUUUUCGGCGGAUGCCGCCAAA [C10G G38C U69G] | < 1e-05 | – | – | – | –
19 | AUAAAAGCGACAGAACUACAGAAAUGUAAUUGACGAGGAGGAGGUUUAUCGAAUUUUCGGCGGAUGGCUCCAAA [C10A G29A C67G] | 0.000103 ± 3.7e-05 | – | – | 0.000102 ± 3e-05 | –
20 | AUAAAAGCGGCAGAACUACAGAAAUGUAGUUGAAGAGGAGGAGGUUUCCCGAAUUUUCGGCGGAUGCCUCCAAA [C10G C34A A48C U49C] | < 1e-05 | – | – | – | –
21 | AUAAAAGCGGCAGAACUACAGAAAUGUAGUUGGCGAGGAAGUGGUUUAUCGAAUUUUCGGCGGAUGCCUCCAAA [C10G A33G G40A A42U] | < 1e-05 | – | – | – | –
22 | AUAAAAGCGAGAGAACUACAGAAAUGUAGUUGACGAGGAUGAGGUUGAUCGAAUUUUCGGCGAAUGCCUCCAAA [C10A C11G G40U U47G G63A] | < 1e-05 | – | – | < 1e-05 | –
23 | AUAAAAGCUCCUGAACUACAGAAAUGUAGUUGGCGAGGAUGAGGUUUAUCGAAUUUUCGGCGGAUGCCUCCAAA [G9U A12U A33G G40U] | < 1e-05 | – | – | – | –
24 | AUAAAAGCUCCAGAACUACAGAAAUGUAGUUGACGAGGAGGAGGUUUAUCGAAUUUUCGGCGGUUGCCUCCAAA [G9U A64U] | < 1e-05 | < 1e-05 | – | < 1e-05 | –
25 | AUAAAAGCUCCAGAACUACAGAAAUGUAGUUGACGAGGAGCUGAUUUAUCGAAUUUUCGGCGGAUGCCUCCAAA [G9U G41C A42U G44A] | < 1e-05 | < 1e-05 | < 1e-05 | – | < 1e-05
26 | AUAAAAGCGGCAGAACUACAGAAAUGUAGUUGACGACGAGGAGGUUUAUCGAAUUUUCGGCGGAUGCCUCCAAA [C10G G37C] | < 1e-05 | – | – | < 1e-05 | –
27 | AUAAAAGCUCCAGAACUACAGAAAUGUAGUUUACGAGGAGUAGGUUUAUCGACUUUUCGGCGGAUGCCUCCAAA [G9U G32U G41U A53C] | < 1e-05 | – | – | < 1e-05 | –
28 | AUAAAAGCCCCAGAACUACAGAAAUGUAGUUGACGAGGAGGAGGUUUAUCGAAUUUACGGCGGAUGCCUCCAAA [G9C U57A] | < 1e-05 | – | – | – | –
29 | AUAAAAGCGGCAGAACUACAGAAAUGUAGUUGACGAGGAGGAGGUUUAUCGAAUUUUCGGCGGAUGCAUCCAAA [C10G C68A] | < 1e-05 | – | – | – | –

From the supplement of paper PMC7125110
